Results are given in words; binding and its absence hold for the method and conditions named. For some assays here: In cells and extracts the contact can be indirect. Some binding calls cover weakened binding; strength is not graded here. For some assays here: Tags and fused reporters may be left off the sequences shown. One block for each binder: values may come before it.
Columns and labels:
[1] = target: PACRG (Parkin co-regulated gene protein), full-length mouse coding sequence in pGBKT7 (mouse) (UniProt Q9DAK2); assay: two-hybrid; direct assay: pairs of plasmids co-transformed into AH109 yeast; growth on selection plates lacking leucine, histidine and tryptophan
[2] = target: PACRG, endogenous in mouse testis (mouse (endogenous in testis)) (UniProt Q9DAK2); assay: co-IP; mouse testis extract (150 mM NaCl, 50 mM Tris-HCl pH 8.0, 5 mM EDTA, 1% Triton X-100) immunoprecipitated with anti-PACRG antibody, protein A beads, 4°C; blot with anti-DNALI1
[3] = target: His-tagged PACRG (full-length mouse Pacrg in the upstream site of pCDFDuet-1) (mouse) (UniProt Q9DAK2); assay: pull-down; co-purification: His-tagged PACRG and non-tagged DNALI1 co-expressed in bacteria; His-tagged PACRG purified from the lysate by nickel affinity chromatography; fractions examined by western blot
[4] = target: PACRG/Myc (mouse Pacrg cDNA in pCS2+ MT) (mouse) (UniProt Q9DAK2); assay: co-IP; COS-1 cells co-transfected with DNALI1/FLAG and PACRG/Myc; lysate immunoprecipitated with anti-MYC antibody, protein A beads, 4°C; blots with anti-MYC and anti-FLAG; mouse normal IgG as control
[5] = target: T1, DNALI1/FLAG (mouse Dnali1 cDNA in pCS3+ FLT) (mouse) (UniProt Q8BVN8); assay: co-IP; COS-1 cells co-transfected with DNALI1/FLAG and MEIG1; lysate immunoprecipitated with anti-Flag antibody; blots with anti-Flag and anti-MEIG1; mouse normal IgG as control
T1 sequence: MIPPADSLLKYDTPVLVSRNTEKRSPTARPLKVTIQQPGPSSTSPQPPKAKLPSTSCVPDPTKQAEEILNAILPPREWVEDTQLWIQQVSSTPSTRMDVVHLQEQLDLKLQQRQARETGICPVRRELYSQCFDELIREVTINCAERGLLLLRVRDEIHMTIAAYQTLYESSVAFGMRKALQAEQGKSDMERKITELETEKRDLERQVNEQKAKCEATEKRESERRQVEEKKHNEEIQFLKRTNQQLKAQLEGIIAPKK

The chains behind the UniProt entries cited, without tags or fusion partners.
UniProt Q9DAK2: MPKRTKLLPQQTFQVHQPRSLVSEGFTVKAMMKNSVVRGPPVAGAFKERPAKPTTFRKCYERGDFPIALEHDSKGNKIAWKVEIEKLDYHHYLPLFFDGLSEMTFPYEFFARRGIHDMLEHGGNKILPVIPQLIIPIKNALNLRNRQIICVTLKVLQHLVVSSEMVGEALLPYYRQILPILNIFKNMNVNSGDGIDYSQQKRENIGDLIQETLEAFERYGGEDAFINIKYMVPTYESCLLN

binding [1]: binds
B1: DNALI1 (axonemal dynein light intermediate polypeptide 1), mouse coding sequence in pGAD-T7 (protein, UniProt Q8BVN8 1-258)
chain: T1 sequence

binding [2]: binds
B2: DNALI1, endogenous in mouse testis (protein, UniProt Q8BVN8 1-258)
chain: T1 sequence

binding [3]: binds
B3: DNALI1, non-tagged (full-length mouse Dnali1 in the downstream site of pCDFDuet-1) (protein, UniProt Q8BVN8 1-258)
chain: T1 sequence

binding [4]: binds
B4: DNALI1/FLAG (mouse Dnali1 cDNA in pCS3+ FLT) (protein, UniProt Q8BVN8 1-258)
chain: T1 sequence

binding [5]: no binding
B5: MEIG1 expressed in COS-1 cells (protein, UniProt Q61845 1-88)
chain: MATSDVKPKSISRAKKWSEEIENLYRFQQAGYRDEIEYKQVKQVAMVDRWPETGYVKKLQRRDNTFFYYNKERECEDKEVHKVKVYVY
